Laboratory results reported in PubChem BioAssay AID624296 (National Center for Advancing Translational Sciences (NCATS), 2012).
Among all 350,000 compounds or so, about 9,900 (2.8%) were called active. Inconclusive means that the source gave no clear call. Such entries were picked first, then a sample of the others. The call rests on the fitted dose curve; in most records, active means well fitted activation curve with a large enough effect; inconclusive means small, poorly fitted or top-dose-only effect; inactive means no such curve, though single readings can be large or run the other way. Potencies of inconclusive entries are left out as doubtful fits.

test: A quantitative high throughput screen for small molecules that induce DNA re-replication in MCF 10a normal breast cells.; further: nearly all actives have a fitted effect of over 50% in size; conditions: MCF 10A DNA re-replication, Hoechst nuclear intensity, 48 h; series mostly up to 46.1 µM
Potency means the concentration at half of the fitted maximal effect; tags describe the fitted curve by direction and shape.

| SMILES | Potency |
| --- | --- |
| COc1ccc(C)cc1NC(=O)CSc1nc2ccccc2nc1N1CC(C)OC(C)C1 (stereo not drawn) | inconclusive [activator, single point] |
| CCC[C@H]1NC(=O)[C@H](C)N(C)C(=O)C(C)(C)C(=O)C(C)NC(=O)[C@H](Cc2ccc(OC)cc2)N(C)C(=O)[C@H](C(C)C)N(C)C(=O)CNC(=O)[C@H](CC(C)C)N(C)C(=O)CNC(=O)[C@H]([C@@H](C)CC)OC(=O)[C@H]1C (stereo partly drawn) | active: 1.46 µM |
| Cc1ccc(S(=O)(=O)C(C#N)c2nc3ccccc3nc2N2CC(C)OC(C)C2)cc1C (stereo not drawn) | active: 14.6 µM |
| COc1cc(Br)cc(/C=N/NC(=O)Cc2ccc(C(F)(F)F)cc2[N+](=O)[O-])c1O | inconclusive [activator, single point] |
| Clc1ccccc1CN(Cc1ccccc1)c1ncnc2nc[nH]c12 | inconclusive [activator, single point] |
| C#CCNC(=O)C1=C[C@@H](c2ccccc2)[C@H](CCCO)[C@@H](OCC)O1 | inconclusive [activator, partial curve, poor fit] |
| COc1ccc(/C=N/Nc2nnc(C)n2N)cc1OC | inconclusive [activator, single point] |
| CCOc1ccc(OCC)c(NC(=O)CSc2nc3c(c(=O)n(C)c(=O)n3C)n2C(C)C)c1 | inactive |
| Nc1ccccc1C(=O)NNC(=O)C(=O)/C=C(\O)c1ccccc1 | inactive |
| CSC1=NSC2=NC(=O)/C(=C/c3coc4ccccc4c3=O)C(=N)N12 | inconclusive [activator, single point] |
| COc1cccc(CNC(=O)COC(=O)/C(C#N)=C/c2ccc(N(C)C)cc2)c1 | inconclusive [activator, single point] |
| COc1ccc(CCNC(=O)c2c(C)nn(-c3ccccc3)c2Cl)cc1OC | inconclusive [activator, single point] |
| O=C(CSc1nnc(-c2ccncc2)o1)c1cccc([N+](=O)[O-])c1 | inactive |
| CSc1ccc(NC(=O)NCCN2CCc3ccccc3C2)cc1 | inconclusive [activator, single point] |
| O=C(COc1ccc(Cl)cc1Cl)N/N=C/c1ccc[nH]1 | active: 11.6 µM |
| CCOc1ccc(-c2c(=O)n(OCc3ccccc3Br)c3ccccc3[n+]2[O-])c(OCC)c1 | inactive |
| S=C(Nc1ccc(Cl)cc1)NC1CC2CCCC(C1)N2C1CCCC1 (stereo not drawn) | inconclusive [activator, full curve, poor fit] |
| Nc1nc(CN2CCN(c3ccccc3F)CC2)nc(N2CCCc3ccccc32)n1 | inconclusive [activator, single point] |
| O=C(c1cnc2nc3ccccc3n2c1)c1cc(F)ccc1O | inconclusive [activator, partial curve, poor fit] |
| CC(NC(=O)C(Cc1ccccc1)=NO)c1ccccc1 (stereo not drawn) | inactive |
| Cc1ccc(NS(=O)(=O)c2ccc(C(=O)NCCCN3CCOCC3)cc2)cc1 | inconclusive [activator, partial curve, poor fit] |
| COc1ccc(NC(=O)c2ccco2)cc1NC(=O)c1cccs1 | inactive |
| CCC(C(=O)NC1CCCC1)N(C(=O)c1snc(C(N)=O)c1N)c1ccc(OC)c(OC)c1 (stereo not drawn) | inactive |

| SMILES | Potency |
| --- | --- |
| COCCCn1c(=O)c2ccccc2n(Cc2ccccc2C)c1=O | inconclusive [activator, partial curve, poor fit] |
| O=[N+]([O-])c1cccc(C2NCC(c3ccccc3Cl)c3c2[nH]c2ccccc32)c1 (stereo not drawn) | inconclusive [activator, single point] |
| CCCCCCCC[n+]1cccc2c3ccccc3ccc21 | inconclusive [activator, partial curve, poor fit] |
| COc1cccc(CN2CCCC(C(=O)c3ccc4c(c3)OCO4)C2)c1O (stereo not drawn) | inconclusive [activator, partial curve, poor fit] |
| O=c1oc(C2(O)CCCCC2)cc2ccc(/C=C/c3ccc(F)cc3)cc12 | inactive |
| COc1ccc(S(=O)(=O)NCc2ccccn2)cc1NC(=O)c1ccccc1 | active: 20.6 µM |
| O=[N+]([O-])c1ccc(C2=NN(CCO)C(=Nc3ccc(OC(F)(F)F)cc3)SC2)cc1 | inactive |
| CCn1ccnc1CN(C)Cc1cn(-c2cc(C)ccc2C)nc1-c1ccccc1 | inactive |
| CCOc1ccc(S(=O)(=O)N2CCOCC2)cc1NC(=O)CSCC(=O)Nc1ccc(C)cc1 | inactive |
| COc1ccccc1NS(=O)(=O)c1cc(NC(=O)Nc2ccccc2)ccc1N1CCCCC1 | inactive |
| Cc1cccc(N=C2Sc3nc4c(C)c(C)ccc4cc3CN2CCN2CCOCC2)c1 | active: 11.6 µM |
| C=C(C)CNC(=S)N/N=C(\C)c1ccc(-n2ccnc2)cc1 | inconclusive [activator, partial curve, poor fit] |
| COc1cccc(NC(=O)c2oc3ccc(S(=O)(=O)N4CCOCC4)cc3c2C)c1 | inconclusive [activator, partial curve, poor fit] |
| CN(C)c1ccc(CNC(=O)CCc2ccc(S(=O)(=O)N3CCCCCC3)cc2)cc1 | inconclusive [activator, single point] |
| Cc1ccc(CNC(=O)C2CCCN(S(=O)(=O)c3c(C)n[nH]c3C)C2)cc1 (stereo not drawn) | inconclusive [activator, full curve, poor fit] |
| Clc1ccc(COc2cccc(CNCc3ccncc3)c2)cc1 | inactive |
| COCCn1c(SCC(=O)N2CCc3ccccc3C2)nc2ccccc2c1=O | inconclusive [activator, partial curve, poor fit] |
| Cc1ccc(N2C3=C(C(=O)CC(C)(C)C3)C(c3cn(C)nc3C)C3=C2CC(C)(C)CC3=O)cc1 | inconclusive [activator, single point] |
| Cc1cc(-n2c(SCc3ccccc3F)nc3n[nH]c(C)c3c2=N)ccc1Cl | inconclusive [activator, partial curve] |
| Cn1cnc(S(=O)(=O)NC2CCN(Cc3c(F)cccc3Cl)CC2)c1 | inactive |
| COc1cc(Br)cc(/C=C/c2ccc3cccc(O)c3n2)c1O | active: 16.4 µM |
| CC(C)c1cccc(C(C)C)c1NC(=O)COC(=O)C1CCC1 | inactive |
| Cc1ccc(C)c(NC(=O)COC(=O)CC2CC3CCC2C3)c1 (stereo not drawn) | inactive |

| SMILES | Potency |
| --- | --- |
| Cc1ccc(C(=O)OCC(=O)N2c3ccccc3NC(=O)C2(C)C)cc1S(=O)(=O)N1CCCCC1 | inconclusive [activator, single point] |
| O=C(c1ccccc1)c1ccc(OCCCCN2CCCCC2)cc1 | inconclusive [activator, partial curve, poor fit] |
| OCC1O[C@H](Oc2ccc(O)cc2)C(O)C(O)C1O (stereo partly drawn) | inactive |
| CC12CCC(=O)N1c1c(sc3nc(N4CCOCC4)c4c(c13)CCCC4)C(=O)N2 (stereo not drawn) | inconclusive [activator, single point] |
| CCOC(=O)C1NN=C(C(=O)c2ccccc2)C1c1ccc(Cl)cc1 (stereo not drawn) | inactive |
| Cc1cc(Br)ccc1OCCNCc1ccccc1 | inconclusive [activator, single point] |
| O=[N+]([O-])c1ccc(NC(=S)NCCc2ccc(F)cc2)cc1 | active: 10.3 µM |
| COc1ccccc1C1(O)CC2CCC(C1)N2S(=O)(=O)c1ccc(C(C)=O)cc1 (stereo not drawn) | inconclusive [activator, single point] |
| CCCn1c(SCC(=O)N2CCc3ccccc3C2)nc2c1c(=O)n(C)c(=O)n2C | inactive |
| CCc1ccc(CN2CCC(C(=O)Nc3ccc(Oc4ccccc4)nc3)CC2)o1 | inconclusive [activator, partial curve, poor fit] |
| CC1=CC(C)(C)n2c(O)c(N=NC(N)=S)c3cc(C)cc1c32 | inconclusive [activator, full curve, poor fit] |
| O=C(c1ccco1)N1CCN(c2ncnc3c(-c4ccccc4)nsc23)CC1 | inconclusive [activator, full curve, poor fit] |
| Cc1ccccc1NCC(=O)c1ccc(Br)cc1 | inconclusive [activator, single point] |
| CC1Cn2c(nnc2C23CC4CC(CC(C4)C2)C3)S1 (stereo not drawn) | active: 14.6 µM |
| O=C(CNC(=O)c1ccccc1)N/N=C/c1ccc([N+](=O)[O-])s1 | inconclusive [activator, partial curve, poor fit] |
| O=C(NNc1nc(-c2ccccc2)cs1)c1ccccc1 | inconclusive [activator, single point] |
| COc1cc(OC)cc(C(=O)Nc2cccc(NC(C)=O)c2)c1 | inactive |
| CCC(CC)c1nn2c(N)c(/C=C3\C(C)=Nc4ccccc43)c(=O)nc2s1 | active: 23.1 µM |
| CCc1n[nH]c(=S)n1/N=C/c1ccc(N(C)c2ccccc2)cc1 | inconclusive [activator, single point] |
| CC(C)c1ccc(NC(=O)[C@@H](NC(=O)N2CC(=O)Nc3ccccc32)C(C)C)cc1 | inconclusive [activator, single point] |
| O=C(NCC(c1ccco1)N1CCN(c2ccc(F)cc2)CC1)c1ccc2c(c1)OCO2 (stereo not drawn) | inconclusive [activator, single point] |
| COc1ccc(CC2(C)OC(c3ccc(C)cc3)=NN2C(C)=O)cc1 (stereo not drawn) | inconclusive [activator, single point] |
